The other results are listed elsewhere or left out.
How the values were obtained:
Test in all cases: glycan array binding signal (z-score within array); higher = stronger binding
Conditions in all cases: glycan notation: IUPAC condensed, linker removed
[1] = target: Neu5Ac(a2-6)Gal(b1-4)GlcNAc(b1-2)Man(a1-3)[Man(a1-6)]Man(b1-4)GlcNAc(b1-4)GlcNAc
How it was run: (§1)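 Glycan array data were curated from 3228 arrays in the Consortium for Functional Glycomics database and kept only where the protein sequence was available. Glycan names were converted to IUPAC-condensed notation, and columns mapping to the same glycan were averaged. The binding signal is a within-array Z-score, averaged across arrays of the same protein sequence at different concentrations or buffers and across linkers. Negative Z-scores can be read as non-binding.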

[2] = target: Neu5Ac(a2-6)Gal(b1-4)GlcNAc(b1-2)Man(a1-3)[Neu5Ac(a2-3)Gal(b1-4)GlcNAc(b1-2)Man(a1-6)]Man(b1-4)GlcNAc(b1-4)GlcNAc
How it was run: as §1

[3] = target: Neu5Ac(a2-6)Gal(b1-4)GlcNAc(b1-2)Man(a1-3)[Neu5Ac(a2-6)Gal(b1-4)GlcNAc(b1-2)Man(a1-6)]Man(b1-4)GlcNAc(b1-4)GlcNAc
How it was run: as §1

[4] = target: Neu5Ac(a2-6)Gal(b1-4)GlcNAc(b1-2)Man(a1-3)[Neu5Ac(a2-6)Gal(b1-4)GlcNAc(b1-2)Man(a1-6)]Man(b1-4)GlcNAc(b1-4)[Fuc(a1-6)]GlcNAc
How it was run: as §1

[5] = target: Neu5Ac(a2-6)Gal(b1-4)GlcNAc(b1-2)Man(a1-6)Man(b1-4)GlcNAc(b1-4)GlcNAc
How it was run: as §1

[6] = target: Neu5Ac(a2-6)Gal(b1-4)GlcNAc(b1-2)Man(a1-6)[Gal(b1-4)GlcNAc(b1-2)Man(a1-3)]Man(b1-4)GlcNAc(b1-4)GlcNAc
How it was run: as §1

[7] = target: Neu5Ac(a2-6)Gal(b1-4)GlcNAc(b1-2)Man(a1-6)[GlcNAc(b1-2)Man(a1-3)]Man(b1-4)GlcNAc(b1-4)GlcNAc
How it was run: as §1

[8] = target: Neu5Ac(a2-6)Gal(b1-4)GlcNAc(b1-2)Man(a1-6)[Man(a1-3)]Man(b1-4)GlcNAc(b1-4)GlcNAc
How it was run: as §1

[9] = target: Neu5Ac(a2-6)Gal(b1-4)GlcNAc(b1-2)[Neu5Ac(a2-6)Gal(b1-4)GlcNAc(b1-4)]Man(a1-3)[GlcNAc(b1-4)][Neu5Ac(a2-6)Gal(b1-4)GlcNAc(b1-2)[Neu5Ac(a2-6)Gal(b1-4)GlcNAc(b1-6)]Man(a1-6)]Man(b1-4)GlcNAc(b1-4)GlcNAc
How it was run: as §1

[10] = target: Neu5Ac(a2-6)Gal(b1-4)GlcNAc(b1-2)[Neu5Ac(a2-6)Gal(b1-4)GlcNAc(b1-4)]Man(a1-3)[GlcNAc(b1-4)][Neu5Ac(a2-6)Gal(b1-4)GlcNAc(b1-4)Man(a1-6)]Man(b1-4)GlcNAc(b1-4)GlcNAc
How it was run: as §1

[11] = target: Neu5Ac(a2-6)Gal(b1-4)GlcNAc(b1-2)[Neu5Ac(a2-6)Gal(b1-4)GlcNAc(b1-6)]Man(a1-6)[Neu5Ac(a2-6)Gal(b1-4)GlcNAc(b1-2)Man(a1-3)][GlcNAc(b1-4)]Man(b1-4)GlcNAc(b1-4)GlcNAc
How it was run: as §1

[12] = target: Neu5Ac(a2-6)Gal(b1-4)GlcNAc(b1-3)Gal(b1-3)GlcNAc
How it was run: as §1

[13] = target: Neu5Ac(a2-6)Gal(b1-4)GlcNAc(b1-3)Gal(b1-4)GlcNAc
How it was run: as §1

[14] = target: Neu5Ac(a2-6)Gal(b1-4)GlcNAc(b1-3)Gal(b1-4)GlcNAc(b1-2)Man(a1-3)[Neu5Ac(a2-6)Gal(b1-4)GlcNAc(b1-3)Gal(b1-4)GlcNAc(b1-2)Man(a1-6)]GalNAc
How it was run: as §1

[15] = target: Neu5Ac(a2-6)Gal(b1-4)GlcNAc(b1-3)Gal(b1-4)GlcNAc(b1-3)Gal(b1-4)GlcNAc
How it was run: as §1

[16] = target: Neu5Ac(a2-6)Gal(b1-4)GlcNAc(b1-3)Gal(b1-4)GlcNAc(b1-3)Gal(b1-4)GlcNAc(b1-2)Man(a1-3)[Neu5Ac(a2-6)Gal(b1-4)GlcNAc(b1-3)Gal(b1-4)GlcNAc(b1-3)Gal(b1-4)GlcNAc(b1-2)Man(a1-6)]GalNAc
How it was run: as §1

[17] = target: Neu5Ac(a2-6)Gal(b1-4)GlcNAc(b1-3)Gal(b1-4)GlcNAc(b1-3)GalNAc
How it was run: as §1

[18] = target: Neu5Ac(a2-6)Gal(b1-4)GlcNAc(b1-3)Gal(b1-4)GlcNAc(b1-3)[Neu5Ac(a2-6)Gal(b1-4)GlcNAc(b1-3)Gal(b1-4)GlcNAc(b1-6)]GalNAc
How it was run: as §1

[19] = target: Neu5Ac(a2-6)Gal(b1-4)GlcNAc(b1-3)Gal(b1-4)GlcNAc(b1-6)[Gal(b1-3)]GalNAc
How it was run: as §1

[20] = target: Neu5Ac(a2-6)Gal(b1-4)GlcNAc(b1-3)Gal(b1-4)[Fuc(a1-3)]GlcNAc(b1-3)Gal(b1-4)[Fuc(a1-3)]GlcNAc
How it was run: as §1

[21] = target: Neu5Ac(a2-6)Gal(b1-4)GlcNAc(b1-3)GalNAc
How it was run: as §1

[22] = target: Neu5Ac(a2-6)Gal(b1-4)GlcNAc(b1-3)[Neu5Ac(a2-6)Gal(b1-4)GlcNAc(b1-6)]GalNAc
How it was run: as §1

[23] = target: Neu5Ac(a2-6)Gal(b1-4)GlcNAc(b1-6)GalNAc
How it was run: as §1

[24] = target: Neu5Ac(a2-6)Gal(b1-4)GlcNAc(b1-6)[Gal(b1-3)GlcNAc(b1-3)]Gal(b1-4)Glc
How it was run: as §1

[25] = target: Neu5Ac(a2-6)Gal(b1-4)GlcNAc(b1-6)[Gal(b1-3)]GalNAc
How it was run: as §1

[26] = target: Neu5Ac(a2-6)Gal(b1-4)GlcNAc6S
How it was run: as §1

[27] = target: Neu5Ac(a2-6)GalNAc
How it was run: as §1

[28] = target: Neu5Ac(a2-6)GalNAc(b1-4)GlcNAc
How it was run: as §1

[29] = target: Neu5Ac(a2-6)GalNAc(b1-4)GlcNAc6S
How it was run: as §1

[30] = target: Neu5Ac(a2-6)GlcNAc(b1-4)GlcNAc
How it was run: as §1

[31] = target: Neu5Ac(a2-6)GlcNAc(b1-4)GlcNAc(b1-4)GlcNAc
How it was run: as §1

B1: AT5G01260(PC)(40) (Arabidopsis thaliana), Q9LFB0 (protein)
chain: MIGIGRTLTSSSPSKIILEDLPPGIYRYGTEIFTSVPRKTFHHIKFLRLDSAQSSRILKPVPLRSSSIKDSQVNVEDEEIEASNKTVRVRFQLRKECVFGEHFFIVGDDPVFGGLWDPETALPLNWSDGNVWTVDLDLPVGRLVEFKLLLKAQTGEILWQPGPNRALETWETNKTIRICEDWDNADLQMMIEEDFVPYTNISSIGSEDEDEVLGSVQQNSSVVAVENAGYVSDESAQNSSFSIQSEKTMEPSNGALTAREVIKEAMFTEEESPVLVPGLIPLSDLDNEQVEVINEGKAETFPEVDKKQEPKAERNKKAKVKAISLFEKSEQEAVKSVEQRQYNAVEEEQQRLETEPLGTPDVLFENDIQWGRRTLYKLLSNFRLF
glycan array binding signal (z-score) [1]: 0.32 | glycan array binding signal (z-score) [2]: -0.259 | glycan array binding signal (z-score) [3]: 0.093 | glycan array binding signal (z-score) [4]: 0.727 | glycan array binding signal (z-score) [5]: -0.415 | glycan array binding signal (z-score) [6]: -0.165 | glycan array binding signal (z-score) [7]: -0.22 | glycan array binding signal (z-score) [8]: -0.27 | glycan array binding signal (z-score) [9]: -0.782 | glycan array binding signal (z-score) [10]: -0.428 | glycan array binding signal (z-score) [11]: -0.36 | glycan array binding signal (z-score) [12]: 0.853 | glycan array binding signal (z-score) [13]: 0.343 | glycan array binding signal (z-score) [14]: 0.243 | glycan array binding signal (z-score) [15]: -0.48 | glycan array binding signal (z-score) [16]: 0.183 | glycan array binding signal (z-score) [17]: -0.429 | glycan array binding signal (z-score) [18]: -0.22 | glycan array binding signal (z-score) [19]: -0.628 | glycan array binding signal (z-score) [20]: -0.054 | glycan array binding signal (z-score) [21]: 0.256 | glycan array binding signal (z-score) [22]: 0.077 | glycan array binding signal (z-score) [23]: -0.851 | glycan array binding signal (z-score) [24]: -0.442 | glycan array binding signal (z-score) [25]: -0.226 | glycan array binding signal (z-score) [26]: 0.483 | glycan array binding signal (z-score) [27]: -0.152 | glycan array binding signal (z-score) [28]: -0.024 | glycan array binding signal (z-score) [29]: -0.189 | glycan array binding signal (z-score) [30]: -0.632 | glycan array binding signal (z-score) [31]: 0.3

Reference: the supplement of paper PMC8728848
